Whole data set: some 33,000 sequences, median “E-score (-0.5 to 0.5)” near -0.054, cut for the highest 2% near 0.39. The list shows a part of the results.
Target: Ylr278c (UniProt Q05854)
Assay: PBM E-score (8-mer binding enrichment) (E-score (-0.5 to 0.5)); higher = stronger / more preferred TF binding; most listed sequences are background and not binding sites
Conditions: protein concentration: 200 nM; construct: GST-DNA-binding domain
Procedure, shortened: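 Using PURExpress in vitro transcription/translation, GST-tagged yeast transcription factors were made in full-length or DNA-binding-domain form. These were applied at about 100-200 nM to double-stranded universal all-10-mer Agilent arrays, and bound protein was detected with fluorescent anti-GST. Scans were normalised with masliner before the Universal PBM Analysis Suite assigned E-scores to ungapped eight-base words pooled with their reverse complements.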

Row | Sequence | PBM E-score
1 | AGTGTATC | -0.0641
2 | ATGACCGA | 0.0898
3 | CTACCCGA | -0.0608
4 | AGAGGCGG | 0.0852
5 | AAACTCTG | -0.126
6 | CGGGCACC | 0.287
7 | AAAAGTTC | 0.127
8 | ATTTTCTA | -0.12
9 | GGTACCAA | -0.00851
10 | TAGTGAAA | -0.148
11 | CGTACTAG | -0.259
12 | GGACCTTA | 0.0338
13 | CCCTAGGC | -0.0625
14 | CACTGTCC | -0.052
15 | AACTGATA | -0.069
16 | CTGCAACC | -0.27
17 | CATTTGAA | 0.0217
18 | CTCTCCGC | 0.325
19 | GTACTTTA | -0.191
20 | CCCAGCCG | 0.103
21 | AATAGATG | 0.0154
22 | GTTAGTTA | 0.116
23 | CGTGCTGC | -0.223
24 | GCCGAGCC | 0.198
25 | ACACTCGA | -0.167

Row | Sequence | PBM E-score
26 | CACGGGAC | 0.165
27 | GCCCAAGC | -0.0617
28 | AATGCGAC | 0.139
29 | GCAGCCGC | 0.0664
30 | CTAAATTA | 0.00555
31 | GCTTGGAC | -0.147
32 | AGTAGCGC | 0.0543
33 | GGTCGCCA | -0.157
34 | AAAACTTG | -0.159
35 | CCATCCTA | -0.106
36 | CGGGCCAC | 0.201
37 | TAGAATCA | -0.0548
38 | ACTAGTGA | -0.227
39 | ATTAACCC | 0.129
40 | CTCCCTTA | -0.173
41 | CCCATGTC | -0.0988
42 | CCCAATGA | -0.195
43 | AAGGTGCT | -0.154
44 | TCGAAAGA | -0.245
45 | CTAAGCAC | -0.0493
46 | GACTAGGC | -0.18
47 | CTCCATCC | -0.085
48 | AACAACCA | -0.187
49 | GGTATGGA | 0.0461
50 | ACGCGTAG | -0.00027

Row | Sequence | PBM E-score
51 | CATCACGG | 0.1
52 | GGATCTAC | -0.0619
53 | ATACAAGA | -0.181
54 | AACTGACC | 0.152
55 | CGATGTAA | 0.0219
56 | AATGAGCG | 0.0729
57 | CGATATCC | 0.264
58 | AATTGGTG | -0.213
59 | GCGTCCAC | 0.0269
60 | ACGGCGTC | 0.275
61 | CGTATAAC | -0.101
62 | GCTTAAAA | -0.0787
63 | CATTTCCA | -0.0597
64 | ATACTGCC | 0.013
65 | CAGTGTCC | 0.0722
66 | CCACCTTA | -0.0276
67 | GTCAGGAA | -0.0709
68 | ATAGCTTG | -0.188
69 | ACGCTGAT | -0.199
70 | AACCGGCT | 0.233
71 | GTAAAATA | -0.0849
72 | CTCGCCCC | 0.0377
73 | TAGTAAGA | -0.186
74 | ATAATAAG | -0.0794
75 | CGGCGGTC | 0.312

Row | Sequence | PBM E-score
76 | CCTCACTC | 0.0281
77 | AGGCTAAC | -0.182
78 | GTGTTGTA | -0.123
79 | CAACACCC | -0.111
80 | AACAAGTC | -0.0535
81 | CTCGGGGA | 0.318
82 | AAGACATA | -0.262
83 | CTCCAGAA | -0.102
84 | ACATCTAT | 0.0398
85 | GGACATAA | 0.132
86 | AGCACCCC | -0.113
87 | CGCGGGAA | 0.337
88 | GTGAGTTA | -0.175
89 | AGTGATGA | -0.149
90 | CTCGCAAG | -0.211
91 | AGTATTAA | 0.00032
92 | CAACTGAA | -0.152
93 | ATGGGGCA | -0.114
94 | GGAGATCA | 0.242
95 | ACCCAGGC | 0.00179
96 | CCGCCGAA | 0.38
97 | CCTAAGGA | -0.0801
98 | AGGCGACT | -0.0828
99 | CCCTATGC | -0.173
100 | AGAAAGCG | 0.0364

Row | Sequence | PBM E-score
101 | ACTTCGGA | 0.368
102 | ACTCCCCA | 0.034
103 | CCGCCCCA | 0.204
104 | AGTGTCTA | -0.183
105 | CGTAATCA | -0.138
106 | CTTACTCC | 0.247
107 | ATGGGTAA | -0.0367
108 | GTGGCAAC | -0.0372
109 | CAACACCG | 0.212
110 | CTATAGTC | -0.125
111 | ACTTACAA | -0.0662
112 | AAGAGTAA | 0.0123
113 | ATTCCTCG | 0.0292
114 | AACCGTAT | -0.121
115 | CAAACGGC | 0.0467
116 | ATTGAAGG | 0.0155
117 | CCTGTGAC | -0.265
118 | AAGCTGAC | -0.0994
119 | CCGGCATC | 0.34
120 | GAGATTGC | 0.0682
121 | AGCGTAGC | -0.0983
122 | GAGTATTA | 0.0363
123 | AATAGCGG | 0.145
124 | CCTTCGTC | -0.194
125 | CTCCGCCC | 0.457

Row | Sequence | PBM E-score
126 | GCAGAGTA | -0.101
127 | ACCGACCC | 0.161
128 | ACCGCAGT | 0.0621
129 | GAGCCCGA | 0.168
130 | AAAAGGAC | -0.118
131 | AACCACTG | -0.136
132 | AAATGCCG | 0.423
133 | CCGAACCA | 0.255
134 | TCGGAGCA | 0.455
135 | AGCCCGCA | 0.201
136 | ACCTGAGA | -0.179
137 | CCCTCTAC | -0.37
138 | AATGATTC | -0.0438
139 | GCGATTCC | 0.237
140 | ACATACCT | -0.192
141 | GTACTGAC | -0.0523
142 | CTTACAAG | -0.267
143 | AAATTTGA | -0.0307
144 | CCCCGTTA | 0.0524
145 | AACGCTCT | -0.122
146 | AGGAGGTC | -0.0814
147 | CAGCCCAG | -0.0779
148 | CGATCTTC | 0.154
149 | AACTACGG | 0.183
150 | CAGAGTCA | -0.305

Row | Sequence | PBM E-score
151 | TATTCCCA | 0.138
152 | AGATGGTC | -0.0931
153 | CGGATCCG | 0.438
154 | GGCCCTAA | -0.0963
155 | TATAGGGA | -0.0545
156 | CGGGCAGC | 0.261
157 | CACCCGCG | 0.224
158 | AGCCGTTA | 0.127
159 | GCGGGTCA | 0.118
160 | CTAGTCAG | -0.359
161 | GCCGCGGA | 0.409
162 | GAGACTAA | 0.112
163 | AAGTCTCA | -0.295
164 | CTAATGAA | 0.00115
165 | AAAGATAG | -0.182
166 | AACGCATC | -0.165
167 | AGTTAAGC | -0.0853
168 | ACTAACAC | 0.01
169 | CGCGAAAA | 0.167
170 | CCTAATCG | -0.0065
171 | CTTTTGAA | -0.00134
172 | CTTGGAGA | -0.0088
